Read counts are not given, so values of variants with three or more changes are uncertain.
B1: LINE1-mini (parent)
chain: GGCAGAGCUCAACACAGCGUGGCAAAGUGGCUGUGGCUAGACUGCC

Variants of: B1
Experiment: self-cleavage, relative activity (ratio to wild type); higher = more cleavage; in vitro, sequencing; the parent is a self-cleaving ribozyme

Row | Variant | self-cleavage
1 | U9G G33A G40A U43A | 0.01
2 | U9G C23U A24C | 0.05
3 | U9G G17A G35A U43G | 0.06
4 | U9G C13U C46G | 0.07
5 | U9G C15G A26U | 0.01
6 | U9G C10U G22U G27A U32A | 0.04
7 | U9G G19U G29C A41U | 0.03
8 | U9G G33C U34A C37U A39C | 0.07
9 | U9G C37U C42U | 0.05
10 | U9G C31U U38C | 0.02
11 | U9G G19U C46U | 0.27
12 | U9G C10G A26G | 0.03
13 | U9G G17U G27U G29U C31U | 0.08
14 | U9G U28A G29A | 0.05
15 | U9G G22A G30C G44U | 0.06
16 | U9G U20C C23G G44U | 0.01
17 | U9G G22A U28A G29A | 0.03
18 | U9G G22U G29A | 0.05
19 | U9G C10U A14G G27A G33U | 0.01
20 | U9G G19C C37U | 0.17
21 | U9G U32C G36C | 0.04
22 | U9G G19A U32G | 0.1
23 | U9G U28A C45A | 0.25
24 | U9G C18A G21C G33C U43G | 0.27

Row | Variant | self-cleavage
25 | U9G G17U A25C U28G G33U C37G G44U | 0.06
26 | U9G C18A A26C G36A A39G G44C | 0.01
27 | U9G C15U G17A G40C | 0.02
28 | U9G G17U U34A U43C | 0.05
29 | U9G G22A G36C | 0.02
30 | U9G G22U A24U C45U | 0.08
31 | U9G G21U G36C A39U | 0.01
32 | U9G G19U A25G A26C | 0.14
33 | U9G U20C G27A | 0.19
34 | U9G C23A A39G | 0.07
35 | U9G G19A G44A | 0.02
36 | U9G G27U C42A | 0.2
37 | U9G U34A C37U C46A | 0.01
38 | U9G G19C U20G G40A | 0.04
39 | U9G C10A U28G | 0.01
40 | U9G G27U G35U C37G G44U | 0.01
41 | U9G U20G C31U | 0.02
42 | U9G G17A G35C | 0.1
43 | U9G C15A G21A C31G | 0.25
44 | U9G C23U G44C | 0.02
45 | U9G U20A G40C C42U | 0.03
46 | U9G C15U C31A | 0.03
47 | U9G C31U G33C | 0.04
48 | U9G G22U G44A | 0.04

Row | Variant | self-cleavage
49 | U9G C10A C23U G27A | 0
50 | U9G C10G C31G U34A | 0
51 | U9G G44U C45U | 0.22
52 | U9G C10U C31G A39U | 0.02
53 | U9G G19U C23A A26C | 0.06
54 | U9G G29U U34G | 0.03
55 | U9G C13G C15G | 0.38
56 | U9G C13A A41C | 0.04
57 | U9G G19U G30C U34G U38G | 0
58 | U9G G36U C46A | 0.1
59 | U9G C13A G36A | 1.44
60 | U9G G22A G29U U32G | 0.02
61 | U9G C13A C18G C23G C42U | 0.02
62 | U9G C15A C37G | 0.07
63 | U9G C15A G35U | 0.05
64 | U9G G27C G33U U38G | 0.08
65 | U9G C13A G17U G21U C23A C31G | 0.15
66 | U9G G35U G40C | 0.01
67 | U9G G19A G29C U38C C42G | 0.04
68 | U9G G21U C31A A39G | 0.02
69 | U9G G29C A39C | 0.02
70 | U9G C31A C42G | 0.02
71 | U9G C18A A24C | 0.08
72 | U9G G17A G22A | 0.01

Row | Variant | self-cleavage
73 | U9G G29U A39C | 0.02
74 | U9G C10U C18G U20C A24U G30C | 0.15
75 | U9G C13A G22C A25U U28C | 0.02
76 | U9G C31U C42A C45A | 0.07
77 | U9G G21A C23A | 0.01
78 | U9G G19C C23U G27C | 0.03
79 | U9G C13A G33U C46A | 0.17
80 | U9G C10G G33U | 0.04
81 | U9G G29U C45G | 0.16
82 | U9G G17A G36U | 0.04
83 | U9G G30C C37U | 0.04
84 | U9G C15U G22C U28G C37G | 0.03
85 | U9G G29U C46A | 0.03
86 | U9G C13A G30A G40U | 0.08
87 | U9G G17U C18U | 0.02
88 | U9G C18A C42A | 0.02
89 | U9G C10U A11C | 0.06
90 | U9G G19U G40U C46A | 0.06
91 | U9G G30U C31G | 0.01
92 | U9G U32A G44U | 0.06
93 | U9G C10U G17A G30U | 0.03
94 | U9G G35A A39U | 0.06
95 | U9G C31U U32G G36U A41G | 0.23
96 | U9G C23A G27A U34C | 0.06

Row | Variant | self-cleavage
97 | U9G G21A G27A | 0.03
98 | U9G U20G G30U | 0.03
99 | U9G C18U C23U G29A | 0.11
100 | U9G C10A G29A G30A G36U C42G | 0
101 | U9G C23G G29A | 0.04
102 | U9G G17A U28G C42U | 0.03
103 | U9G G27C G44A | 0.09
104 | U9G C15A A26U A41G | 0.14
105 | U9G U28A U38C A41G U43G | 0.02
106 | U9G C13A C31U | 0.1
107 | U9G G36U C45U | 0.11
108 | U9G C13G A14U A26G | 0.07
109 | U9G C15G G21A C23A G35U | 0.02
110 | U9G U28G C37A A39U | 0.04
111 | U9G C18U G22A A24G G33U G35C | 0.03
112 | U9G C37A C46U | 0.04
113 | U9G C15U A26C | 0.02
114 | U9G C13U U34A | 0.09
115 | U9G G30A G33A | 0.08
116 | U9G G22A G30U G35U | 0.01
117 | U9G G17U G22C G40U | 0.06
118 | U9G C42A G44A C45U | 0.04
119 | U9G C13U C15G A16G | 0.04
120 | U9G C10G U28A | 0.01

Row | Variant | self-cleavage
121 | U9G C10G U28G | 0
122 | U9G G33A A41G G44A | 0.01
123 | U9G C13A A39U G40C | 0.04
124 | U9G C23U G36U | 0.1
125 | U9G G17U A24C C31U | 0.02
126 | U9G G29A C42A G44U | 0.07
127 | U9G C13A A39G | 0.47
128 | U9G C15G C31G | 0.07
129 | U9G G17A A25G G44A | 0.02
130 | U9G C10G G19A G27U G29C G40U C46A | 0
131 | U9G U28G G44U | 0.05
132 | U9G G22U C23A G33U | 0.15
133 | U9G C15U A16G G33U | 0.08
134 | U9G C18U C37U | 0.03
135 | U9G C10U U20A G21U C46U | 0.01
136 | U9G G22A A26G U28A G35U C46U | 0.03
137 | U9G U32A A39U | 0.03
138 | U9G G22C G35A | 0.06
139 | U9G U34A G44A | 0.1
140 | U9G G21U A24U U38A | 0.14
141 | U9G C18U A24U U43A | 0
142 | U9G C13A A16C | 0.05
143 | U9G G17A A24U | 0.04
144 | U9G C15U G27C G33C C37A | 0.01

Row | Variant | self-cleavage
145 | U9G C13A C23U A26U G36C | 0.02
146 | U9G G17A C31A | 0.06
147 | U9G G22U G40U | 0.01
148 | U9G C10A G22A C23G | 0.01
149 | U9G U28G U38A | 0.02
150 | U9G C31A U38C | 0.01
151 | U9G C18U A24U | 0.02
152 | U9G C18G G40C C46G | 0.03
153 | U9G C10A G21A G27U G44U C46A | 0.02
154 | U9G C10U A12C A24C U34A | 0.01
155 | U9G U28A U38C | 0.09
156 | U9G G17U G21U A25G U32A G35A U43G C46G | 0
157 | U9G C37A G44U | 0.23
158 | U9G C37A G44A | 0.13
159 | U9G C18A G33U G35A | 0.02
160 | U9G U20G G29U U38A C42A | 0.03
161 | U9G C23A G30C G35A | 0.01
162 | U9G C10U G33C C42A | 0.01
163 | U9G G22U G44U C46A | 0.02
164 | U9G U32G G40U | 0.24
165 | U9G C10U C42U | 0.14
166 | U9G C13U G17A G21U A26U G29A U32G U38G A39G | 0
167 | U9G G40A G44A | 0.12

Reference: the RNAGym collection of RNA variant scans (doi:10.7554/elife.90254)
